In the supplement of paper PMC11876631:
± gives the standard deviation of the averaged measurements. Laboratory Escherichia coli strains with one amino-acid change in an essential protein, pooled on minimal glucose agar with carbenicillin or gentamicin at twice the control MIC (plus kanamycin and chloramphenicol for the plasmids), 48 h. Fold change of barcode share against drug-free plates; higher = less susceptible. Active = above 20 in both replicates (the paper's putatively resistant). '<' = one read or none on drug, '>' = one read or none on a drug-free plate. Shares are relative, so most strains fall below 1 when a few take over. Listed are strains with at least 15 reads on both drug-free plates, and hits; most hits rest on fewer reference reads. Replicate rank correlation about 0.5. Edits are read from barcodes.

B1: yihA; numbered along this chain (parent)
chain: MTNLNYQQTHFVMSAPDIRHLPSDTGIEVAFAGRSNAGKSSALNTLTNQKSLARTSKTPGRTQLINLFEVADGKRLVDLPGYGYAEVPEEMKRKWQRALGEYLEKRQSLQGLVVLMDIRHPLKDLDQQMIEWAVDSNIAVLVLLTKADKLASGARKAQLNMVREAVLAFNGDVQVETFSSLKKQGVDKLRQKLDTWFSEMQPVEETQDGE
B2: topA; numbered along this chain (parent)
chain: MGKALVIVESPAKAKTINKYLGSDYVVKSSVGHIRDLPTSGSAAKKSADSTSTKTAKKPKKDERGALVNRMGVDPWHNWEAHYEVLPGKEKVVSELKQLAEKADHIYLATDLDREGEAIAWHLREVIGGDDARYSRVVFNEITKNAIRQAFNKPGELNIDRVNAQQARRFMDRVVGYMVSPLLWKKIARGLSAGRVQSVAVRLVVEREREIKAFVPEEFWEVDASTTTPSGEALALQVTHQNDKPFRPVNKEQTQAAVSLLEKARYSVLEREDKPTTSKPGAPFITSTLQQAASTRLGFGVKKTMMMAQRLYEAGYITYMRTDSTNLSQDAVNMVRGYISDNFGKKYLPESPNQYASKENSQEAHEAIRPSDVNVMAESLKDMEADAQKLYQLIWRQFVACQMTPAKYDSTTLTVGAGDFRLKARGRILRFDGWTKVMPALRKGDEDRILPAVNKGDALTLVELTPAQHFTKPPARFSEASLVKELEKRGIGRPSTYASIISTIQDRGYVRVENRRFYAEKMGEIVTDRLEENFRELMNYDFTAQMENSLDQVANHEAEWKAVLDHFFSDFTQQLDKAEKDPEEGGMRPNQMVLTSIDCPTCGRKMGIRTASTGVFLGCSGYALPPKERCKTTINLVPENEVLNVLEGEDAETNALRAKRRCPKCGTAMDSYLIDPKRKLHVCGNNPTCDGYEIEEGEFRIKGYDGPIVECEKCGSEMHLKMGRFGKYMACTNEECKNTRKILRNGEVAPPKEDPVPLPELPCEKSDAYFVLRDGAAGVFLAANTFPKSRETRAPLVEELYRFRDRLPEKLRYLADAPQQDPEGNKTMVRFSRKTKQQYVSSEKDGKATGWSAFYVDGKWVEGKK

Variants of: B1
Experiment: barcode share on antibiotic plates over drug-free plates; higher = less susceptible
Conditions: with Escherichia coli (laboratory strain); antibiotic: gentamicin; 2× MIC (MIC 0.45 µg/mL)
Procedure: (§1)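 A pool of E. coli strains, each edited to carry one amino-acid change in an essential protein, was grown for 48 h on minimal glucose agar with or without antibiotic; strain barcodes were sequenced; mean of two replicates.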

Row | Variant | fold change of barcode share
1 | MTNLNYQQTHFVMSAPDIRHLPSDTGIEVAFAGRSNAGKSSALNTLTNQKSLARTSKTPGRTQLINLFEVADGKRLVDLPGYGYAEVPEEMKRKWQRALGEYLEKRQSLQGLVVLMDIRHPLKDLDQQMIEWAVDSNIAVLVLLTKADKLASGARKAQLNMVREAVLAFNGDVQVETFSSLKKQGVDKPRQKLDTWFSEMQPVEETQDGE [L189P] | < 0.00664

Variants of: B2
Experiment: as above
Conditions: with Escherichia coli (laboratory strain); antibiotic: carbenicillin; 2× MIC (3.1 µg/mL)
Procedure: as §1

Row | Variant | fold change of barcode share
2 | V6A | 0.293 ± 0.21
3 | V6W | 0.203 ± 0.15
4 | V8A | 0.148 ± 0.023
5 | V199D | 0.363 ± 0.041
6 | V199P | 0.267 ± 0.091
7 | V199Q | 0.282 ± 0.053
8 | V204P | 0.174 ± 0.056
9 | V204Q | 0.323 ± 0.28
10 | L550A | 0.407 ± 0.13
11 | L550W | 0.3291 ± 0.0027
12 | F571Q | 1.11 ± 0.015

Same assay, conditions: with Escherichia coli (laboratory strain); antibiotic: gentamicin; 2× MIC (MIC 0.45 µg/mL)

Row | Variant | fold change of barcode share
13 | V6A | 0.125 ± 0.16
14 | V6W | 5.46 ± 6.3
15 | V8A | 0.0185 ± 0.021
16 | V199D | 0.02575 ± 0.00022
17 | V199P | 0.00518 ± 0.00053
18 | V199Q | < 0.00445
19 | V204P | 0.00982 ± 0.0086
20 | V204Q | < 0.00947
21 | L550A | 0.0123 ± 0.01
22 | L550W | < 0.0108
23 | F571Q | 1.12 ± 0.48
